Some of the results follow. One pool of 16,384 single-stranded DNAs met each Rep nickase domain in vitro (3 µM enzyme, 1 h, 37 °C); shown is the middle of each 90-letter strand. Numbers give uncut DNA relative to the enzyme-free pool, as log2; strong cutting gives strongly negative numbers. There is no active / inactive call. Reads are scaled to the total; uncut strands gain when others are lost, and binding without cutting may add a little.
What was measured:
Experiment in all cases: uncleaved DNA left, log2 of reads against the no-enzyme library (log2 ratio); higher = less cleavage (more negative = more Rep cleavage of the k-mer); sequences stand for … in CTCGTCCG…ACCGGAGA
[1] = system: T1, Rep nickase domain of Muscovy duck circovirus
T1 sequence (protein, residues 1-111, tag omitted): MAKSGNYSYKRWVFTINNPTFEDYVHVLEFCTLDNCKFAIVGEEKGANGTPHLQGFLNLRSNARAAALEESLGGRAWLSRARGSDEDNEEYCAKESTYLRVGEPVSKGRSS
Method: (§1)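 A pool of 90-nt single-stranded DNAs with seven random bases just before the constant AC of the nick site (name = the seven bases) was cut by 3 µM recombinant His6-SUMO-tagged Rep nickase domain (300 nM DNA, 50 mM HEPES pH 8.0, 50 mM NaCl, 1 mM MnCl2, 1 h, 37 °C, three replicates). Uncut DNA was amplified and sequenced.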

[2] = system: T2, Rep nickase domain of banana bunchy top virus
T2 sequence (protein, residues 1-94, tag omitted): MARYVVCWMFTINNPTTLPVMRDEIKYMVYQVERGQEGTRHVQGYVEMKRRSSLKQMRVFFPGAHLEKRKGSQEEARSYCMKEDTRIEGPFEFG
Method: as §1

[3] = system: T3, Rep nickase domain of cabbage leaf curl virus
T3 sequence (protein, residues 1-116, tag omitted): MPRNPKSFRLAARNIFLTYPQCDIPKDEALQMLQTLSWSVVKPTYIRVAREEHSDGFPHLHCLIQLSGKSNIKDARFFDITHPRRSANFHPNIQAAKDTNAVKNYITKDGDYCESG
Method: as §1

[4] = system: T4, Rep nickase domain of chickpea chlorotic dwarf virus
T4 sequence (protein, residues 1-124, tag omitted): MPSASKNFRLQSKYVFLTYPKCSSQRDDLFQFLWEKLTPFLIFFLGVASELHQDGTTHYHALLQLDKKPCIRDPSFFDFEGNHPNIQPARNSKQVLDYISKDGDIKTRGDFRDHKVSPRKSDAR
Method: as §1

[5] = system: T5, Rep nickase domain of faba bean necrotic yellows virus
T5 sequence (protein, residues 1-98, tag omitted): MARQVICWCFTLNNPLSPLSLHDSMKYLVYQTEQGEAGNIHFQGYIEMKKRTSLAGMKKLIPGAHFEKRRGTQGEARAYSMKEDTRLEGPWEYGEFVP
Method: as §1

[6] = system: T6, Rep nickase domain of maize striate mosaic virus
T6 sequence (protein, residues 1-117, tag omitted): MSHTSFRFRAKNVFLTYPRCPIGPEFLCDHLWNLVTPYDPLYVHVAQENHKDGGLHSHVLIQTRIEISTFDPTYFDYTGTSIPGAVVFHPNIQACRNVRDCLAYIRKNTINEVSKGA
Method: as §1

[7] = system: T7, Rep nickase domain of porcine circovirus 2
T7 sequence (protein, residues 2-116, tag omitted): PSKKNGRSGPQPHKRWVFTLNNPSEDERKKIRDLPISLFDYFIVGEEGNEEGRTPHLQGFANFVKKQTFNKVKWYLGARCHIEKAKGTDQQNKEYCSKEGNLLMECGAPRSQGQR
Method: as §1

[8] = system: T8, Rep nickase domain of tomato yellow leaf curl virus
T8 sequence (protein, residues 1-136, tag omitted): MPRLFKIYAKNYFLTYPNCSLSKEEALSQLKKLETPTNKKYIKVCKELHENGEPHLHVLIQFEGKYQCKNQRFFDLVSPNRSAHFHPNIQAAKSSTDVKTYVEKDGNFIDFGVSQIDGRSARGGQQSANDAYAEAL
Method: as §1

[9] = system: T9, Rep nickase domain of wheat dwarf virus
T9 sequence (protein, residues 1-137, tag omitted): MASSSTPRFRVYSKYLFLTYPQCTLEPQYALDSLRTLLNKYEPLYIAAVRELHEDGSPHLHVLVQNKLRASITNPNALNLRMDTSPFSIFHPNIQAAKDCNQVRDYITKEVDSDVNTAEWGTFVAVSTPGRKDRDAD
Method: as §1

Sequence	uncleaved DNA left (log2) [1]	uncleaved DNA left (log2) [2]	uncleaved DNA left (log2) [3]	uncleaved DNA left (log2) [4]	uncleaved DNA left (log2) [5]	uncleaved DNA left (log2) [6]	uncleaved DNA left (log2) [7]	uncleaved DNA left (log2) [8]	uncleaved DNA left (log2) [9]
TTGCAGG	0.219	0.0995	-0.174	-0.139	0.112	-0.584	0.196	0.0289	-0.0519
TCCGCCA	0.00935	-0.167	-0.0721	-0.744	0.0166	-0.479	-0.137	-0.202	-0.0543
TGGACCG	0.15	0.16	-0.294	-0.143	0.168	-0.545	0.3	0.134	0.196
GGCCCAG	0.0787	0.176	0.467	0.946	-0.0253	1.06	0.112	0.0778	-0.0142
CTCACCT	-0.101	-0.0287	-0.143	-2.29	-0.017	-0.575	-0.405	0.00256	0.0413
ACGTTCT	-0.764	-0.156	-0.37	-2.27	-0.107	-0.72	-2.75	-0.153	-0.0367
CTGACCT	0.0408	-0.00257	-0.00848	0.37	-0.0709	0.671	0.0145	-0.0651	-0.00502
AGGACCC	0.0447	0.0366	0.44	1.33	0.00461	1.54	0.0765	-0.0665	0.0589
TGCCGTT	0.0904	0.107	0.00405	-0.772	-0.101	-0.438	-0.142	0.149	0.0285
TCATACT	-3.76	-0.306	-3.22	-3.05	-0.0384	-1.54	-3.91	0.0644	-0.914
TTCAGCC	-0.00643	-0.0933	-0.0712	-0.497	0.0776	-1.01	-0.0123	0.0638	-0.0375
TGGGAAG	0.201	0.0877	0.296	0.771	0.179	0.332	0.196	0.000104	0.0965
TTGTGTA	-0.0304	-0.0705	-0.203	-0.815	0.104	-0.838	-0.307	0.0452	-0.103
GACCAGA	-0.0158	0.0177	0.258	0.396	-0.0146	0.0658	-0.00458	-0.0249	0.0426
CAAGGTC	-0.0309	-0.0264	0.133	0.506	-0.145	0.592	-0.155	-0.0835	-0.133
GTTCGGG	0.042	-0.082	0.214	0.547	-0.0381	0.25	-0.035	0.048	-0.0607
AAAGGCA	-0.0261	-0.0621	-0.0514	-0.0513	-0.0513	-0.328	-0.0105	-0.0821	0.029
CCTATTA	0.0146	-0.00238	-0.0386	-1.1	0.0194	-0.674	-0.0194	0.135	0.179
TTCTGCT	-1.51	-0.0561	-0.799	-1.8	-0.00125	-1.17	-3	0.0115	-0.0641
TCAGTAG	0.14	-0.0453	-0.623	-0.523	-0.028	-1.05	0.215	0.0543	-0.0438
TTCAGGG	-0.0687	0.000554	0.288	0.609	0.148	0.425	0.206	0.0255	-0.0404
CAATTGC	0.00857	0.00738	-0.889	0.292	0.0481	-0.525	0.11	0.118	-0.0267
ACCTTAG	0.0363	-0.00431	-0.71	0.116	0.056	-0.62	0.214	0.0745	0.0164
CGTGGTG	0.131	0.0125	-0.489	-0.243	0.0717	-0.755	0.118	0.166	-0.0603
AGCGAAA	-0.0402	0.13	0.0579	0.559	0.0608	1.13	0.00312	-0.022	0.193
TTTATCG	0.00306	0.00378	-0.835	-0.545	-0.0168	-1.11	0.148	-0.0124	-0.0308
TCGAAGC	0.0209	-0.00301	-0.0604	-0.358	-0.108	-1.07	0.0675	-0.0651	-0.0561
CTACCGC	-0.001	-0.0434	-0.302	-1.41	-0.000753	-0.714	-0.17	-0.094	0.0185
CACTACT	-3.5	-3.61	-2.87	-3.65	-1.67	-1.49	-4.3	-0.128	-0.431
ACCCTCT	-0.245	-0.125	-0.412	-2.25	-0.0842	-0.881	-0.326	-0.135	-0.302

Reference: the supplement of paper PMC7826260
